Source: ChEMBL document CHEMBL1201862, “PubChem BioAssay data set” (2004)

test system: NCI-H322M; assay: NCI anticancer screen, dose series, 48 h

SMILES | GI50
CCOC(=O)c1nc2cc(F)c(N3CCOCC3)cc2[nH]c1=O | inactive: > 100 µM
CC1=C(C(=O)Nc2ccccc2)C(c2ccc(N(C)C)cc2)C(C(=O)Nc2ccccc2)=C(C)N1 | inactive: 17.5 µM
CC1CC2CC(=O)CC3(C1)C2CCCN3CCCO (configuration not stated) | inactive: > 100 µM
O=C(/C=N/c1ccccc1C(=O)O)c1cccs1 | inactive: 18.7 µM
COC(=O)c1c2c(cc3c1CC1(Cc4cc5c(cc4C1)CCCC5)C3)CCCC2 | inactive: > 100 µM
COC(=O)C(C(=O)C(=O)Nc1ccccc1C)c1nc2ccc([N+](=O)[O-])cc2nc1O (configuration not stated) | inactive: > 100 µM
O=[N+]([O-])C(/C=C(\Cl)[N+](=O)[O-])=C1Nc2ccccc2N1 | inactive: > 100 µM
Cc1nccn1S(=O)(=O)c1ccc(Cl)cc1 | inactive: 52.4 µM
CC(=O)Nc1cc(Nc2cc(O)nc(O)n2)ccc1C | inactive: > 100 µM
COc1cc([C@H]2Oc3c(OC)cc(CCCO)cc3[C@@H]2CO)ccc1O [DIHYDRODEHYDRODICONIFERY ALCOHOL] | inactive: > 100 µM
CCC[C@H]1O[C@@H]2CC(=O)O[C@@H]2C2=C1C(=O)C=CC2=O | inactive: > 59.7 µM
CC(C)c1cccc(C(C)C)c1NC(=O)C(=O)C1CCC2=C(Sc3ccccc3N2)C1=O (configuration not stated) | inactive: > 100 µM
O=C1CSC(c2ccc(Cl)cc2)N1c1ccc(-n2c(-c3ccccc3)nc3ccccc3c2=O)cc1 (configuration not stated) | inactive: 34.1 µM
CC1OC(OC2C(OC(=O)[C@]34CCC(C)(C)C[C@H]3C3=CC[C@@H]5[C@@]6(C)CC[C@H](OC7OC(CO)C(O)C(O)C7OC7OC(CO)C(O)C(O)C7O)C(C)(C)[C@@H]6CC[C@@]5(C)[C@]3(C)CC4)OCC(O)C2O)C(O)C(O)C1OC1OCC(O)C(OC2OCC(O)C(O)C2O)C1O (some centres not stated) | inactive: 3.01 µM and inactive: 2.64 µM
Cc1nc2c(O)nc3ccccc3c2o1 | inactive: > 100 µM
COC1CC(OC2OC(CO)C(O)C(O)C2O)/C(=C\C#N)C(O)C1OC (configuration not stated) | inactive: > 100 µM
Cc1c(N/C=C(\C#N)C(=O)c2ccc(Cl)cc2)c(=O)n(-c2ccccc2)n1C | inactive: > 100 µM
O=C(CO[N+](=O)[O-])OC/C=C/c1ccccc1 | inactive: > 100 µM
CCN1CCCC(C#N)(c2ccccc2)CC1 (configuration not stated) | inactive: > 100 µM
O=C1NC(=O)C2(CCCCCC2)N1 | inactive: > 100 µM
Brc1ccc2c(C3CN[C@@H](c4c[nH]c5cc(Br)ccc45)CN3)c[nH]c2c1 (some centres not stated) | inactive: 3.52 µM
COc1ccc(/C(CC2OC(=O)c3ccccc32)=N\NC(N)=O)cc1 (configuration not stated) | inactive: > 100 µM
O=c1nc(Oc2c(F)c(F)c(F)c(F)c2F)ccn1C1OC(CO)C(O)C1O (configuration not stated) | inactive: > 100 µM
CC(C)(C)OC(=O)N/N=C(/N)Cc1ccccc1 | inactive: > 100 µM
O=C(NCCCl)Nc1cccnc1 | inactive: 19.8 µM

SMILES | GI50
O=C1C2C3CC4C5C3C1C5C1(SCCS1)C42 (configuration not stated) | inactive: > 100 µM
COc1ccc(C2c3cc4c(c(OC)c3CC3OCC(=O)C32)OCO4)cc1OC (configuration not stated) | active: 0.0679 µM
O=C1CC23CCCCCCCCCCC2(C1)CC(=O)C3 (configuration not stated) | inactive: 41.4 µM
C=C1CC[C@@H]2C(C)(C)C(O)CCC2(C)C1COc1ccc2ccc(=O)oc2c1 (some centres not stated) | inactive: 17 µM
C=C(C)[C@H]1C[C@@H]2O[C@@](O)(/C(C)=C\C(=O)/C=C(/C)C[C@H]3OC(=O)[C@@]24O[C@H]34)[C@@H]1O | inactive: > 100 µM
NC(=S)NNC(=S)NC(=O)c1ccco1 | inactive: > 10 µM
Clc1cccc(Cl)c1C1ON=C(c2ccccc2)N1C12CC3CC(CC(C3)C1)C2 (configuration not stated) | inactive: > 100 µM
CCOC(=O)CCCn1cc(C(=O)OC)nn1 | inactive: > 100 µM
COc1cc2c(c(O)c1OC)C(=O)[C@@H]1CCC(=O)N1C2 | inactive: > 100 µM
COc1ccc(C(=O)N(Cc2cccnc2)C(=S)N(Cc2cccnc2)C(=O)c2ccc(OC)cc2)cc1 | inactive: > 100 µM
CC(=O)OC/C=C(/CCl)CCC(Br)C(C)(C)Br.CC(=O)OC/C=C(\CCl)CCC(Br)C(C)(C)Br (configuration not stated) | inactive: > 10 µM
C=C1C2CCCC1C1(S(C)(=O)=O)CCCCC21O (configuration not stated) | inactive: > 100 µM
Oc1ccc(-c2nc3ccccc3s2)cc1 | inactive: 29.4 µM
Cc1cc(=O)oc2cc(OC(=O)Nc3ccccc3)ccc12 | inactive: > 100 µM
N#C/C(=C1\SC(/N=N/c2ccc(Cl)cc2)C(=O)N1c1ccccc1)c1nc2ccccc2[nH]1 (configuration not stated) | inactive: 30.3 µM
CN(C(=O)C12C3C4C1C1C2C3C41C(=O)O)C(C)(C)C (configuration not stated) | inactive: > 100 µM
COC1=C2C[C@H](O)C(C)C[C@@]2(OC)OC1=O (some centres not stated) | inactive: > 100 µM
CC(=O)NC1=C(NCCCl)C(=O)c2ccccc2C1=O | inactive: 56.6 µM
COc1ccc(C2c3cc4c(cc3OC(NNC(N)=O)C2C)OCO4)cc1 (configuration not stated) | inactive: 7.6 µM
O=C(NNC(=S)NCc1ccccc1)C12CC3CC(CC(C3)C1)C2 | inactive: 56.5 µM
Nc1nc(N)c(Cn2ccnc2)c(O)n1 | inactive: > 100 µM
Nc1nc(N)c2nnn(C[C@H]3CC[C@@H](CO)C3)c2n1 | inactive: > 100 µM
CC1CC(NN)=Nc2ccccc2N1 (configuration not stated) | inactive: > 100 µM
COc1ccc2c(=O)c3ccoc3n(CC=C(C)C)c2c1 [ACROPHYLLINE] | inactive: 74.3 µM
COC(=O)C1=C(C)NC(C)=C(C(=O)OCCCN2CCC(c3ccccc3)(c3ccccc3)CC2)[C@H]1c1cccc([N+](=O)[O-])c1 [NIGULDIPINE] | inactive: 1.87 µM

SMILES | GI50
Cc1cc(N(CCC#N)S(C)(=O)=O)ccc1C=O | inactive: > 100 µM
CCOC(=O)C1=C(C)N(NC(N)=O)C2(O)CCCC(=O)C12C (configuration not stated) | inactive: > 100 µM
COc1ccc(-c2nc3c(C(=O)NCCN(C)C)cccc3c3ccccc23)cc1 | inactive: 8.89 µM
COc1ccc2c(c1)Cc1c-2[nH]c2cc3c(cc2c1=O)OCO3 | inactive: 25.6 µM
O=C(O)/C(=C/c1ccccc1[N+](=O)[O-])c1ccccc1 | inactive: > 100 µM
C=CC1(O)CCCC=C1COCc1ccccc1 (configuration not stated) | inactive: > 100 µM
CCN(CC)CC(O)CNc1ccc(NCC2CO2)c2c1C(=O)c1ccccc1C2=O (configuration not stated) | inactive: 1.56 µM
O=C1Nc2ccccc2/C1=N/N=c1\cccc[nH]1 | inactive: 20.3 µM
COc1ccc2c(=O)cc(-c3ccncc3)oc2c1OC | inactive: 29.7 µM
O=C1C=CC2(C=C1)CCNC1=C2C(=O)c2ccccc2C1=O | inactive: > 100 µM
C=C1CCCC2[C@](C)(CC3=C(O)C(=O)C=C(OC)C3=O)[C@@H](C)CC[C@]12C (some centres not stated) | inactive: 3.56 µM
CN(N=O)C(=N)NC(=O)c1ccccc1 | inactive: > 100 µM
OC1NC2Nc3ccccc3NC2NC1O (configuration not stated) | inactive: > 100 µM
Cc1cnoc1/N=C1\C=C(O)C(=O)c2ccccc21 | inactive: 29.9 µM
O=C(O)C/C=C/CC(=O)O | inactive: > 100 µM
CC1(C)OCC(C2OC(N3O[C@H](CI)C[C@@H]3c3ccccc3)C3OC(C)(C)OC23)O1 (some centres not stated) | inactive: > 100 µM
O=C1/C(=N\n2c(S)nnc2-c2ccncc2)c2cc(Cl)ccc2N1CN1CCCCC1 | inactive: 81.5 µM
Cc1cc2nn(C3CCCO3)nc2cc1C (configuration not stated) | inactive: > 100 µM
O=P(CN1CCOCC1)(c1ccccc1)c1ccccc1 | inactive: > 100 µM
CCOC(=O)c1nc2ccccc2nc1Nc1ccc(OC)cc1 | inactive: 69 µM
CCCN(CCC)C1CCc2c(ccc3cc[nH]c23)C1 (configuration not stated) | inactive: > 100 µM
CN(C)c1ccc(/C=C2\C=Cc3ccccc32)cc1 | inactive: > 100 µM
COc1ccc(-c2oc3c(CC(=O)O)cccc3c(=O)c2OC)cc1 | inactive: > 100 µM
C#CC(O)/C=C/CCCCCCC#CC/C=C\CC#CCCCCCCCCC(O)C#C (configuration not stated) | inactive: 14.5 µM
Cc1ccc2c(n1)NC(=O)C(Cc1ccccc1)(N=[N+]=[N-])C2=O (configuration not stated) | inactive: > 100 µM

SMILES | GI50
COC(=O)c1ccccc1/C=C1\Cc2cc3c(cc2C1=O)CCC3 | inactive: > 10 µM
CN(C)c1ccc(/C=C2/SC(=S)NC2=O)cc1 | inactive: > 100 µM
CC(C)c1nc2c(Cl)c3ncccc3cc2[nH]c1=O | inactive: > 100 µM
Cc1cccc2c(N)c3cccc(C(=O)NCCN(C)C)c3nc12 | active: < 0.0377 µM
[O-][S+](CCc1ccccc1)Nc1ccccc1 (configuration not stated) | inactive: > 100 µM
N#Cc1c(-c2ccc(Cl)cc2)c2c([nH]c1=O)-c1cc([N+](=O)[O-])ccc1CCC2 | inactive: 19.6 µM
Brc1ccc2[nH]cc(-c3csc(-c4ccccn4)n3)c2c1 | inactive: 15.5 µM
CN1C(=O)NC2(O)c3ccccc3C(=O)C12O (configuration not stated) | inactive: > 100 µM
O=C1C2C=CC(C2)C(c2ccc(O)cc2)N1O (configuration not stated) | inactive: > 100 µM
Cn1nnc2c(C(N)=O)ncn2c1=O [TEMOZOLOMIDE] | inactive: > 100 µM
COc1cc(OC(=O)c2c(O)cc(O)c(O)c2C)cc(C)c1C(=O)Oc1cc(C)c(C(=O)O)c(O)c1 | inactive: > 100 µM
C=CC(COC(=O)C(C)(C)OC(C)=O)c1ccc(OC(=O)C(C)C)c(OC)c1 (configuration not stated) | inactive: 17.2 µM
CCCc1cc2c(cc1O)CC[C@@H]1[C@@H]2CC[C@]2(C)[C@@H](O)CC[C@@H]12 | inactive: 17.3 µM
CCOc1ccc2ccc3cccnc3c2n1 | inactive: 40.3 µM
COc1cc(C2=N/C(=C/c3cccs3)C(=O)O2)cc(OC)c1OC | inactive: > 100 µM
CCCCC(C)C(OC(=O)CC(CC(=O)O)C(=O)O)C(CC(C)CC(O)CCCCC(O)CC(O)C(C)N)OC(=O)CC(CC(=O)O)C(=O)O (configuration not stated) | inactive: > 100 µM
COc1cccc(-n2nnc3c(N)nc(N)nc32)c1 | inactive: > 100 µM
C=CCN1C(=O)/C(=C/c2ccc(OC)cc2)N=C1SC/C=C/C | inactive: > 100 µM
CC(C)(C)C1=CC(=CC=C2C=CN(CCCCCCCCCCCO)C=C2)C=C(C(C)(C)C)C1=O | inactive: 2.64 µM
CCOC(=O)c1nc2ccccc2nc1Oc1ccc(C(=O)OC)cc1 | inactive: > 100 µM
O=C(Sc1n[nH]c(=O)[nH]c1=O)c1cccc2nc3ccccc3nc12 | inactive: 16.8 µM
c1ccc2c(c1)ncn2C1CCCCO1 (configuration not stated) | inactive: > 100 µM

Values joined by “and” are separate entries in the source; they are usually repeats but may differ in a detail not shown here. Identical values can stand only once.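 In this assay, cells in 96-well plates receive the compound at five concentrations for 48 hours. Endpoints are linearly interpolated between the surrounding concentrations. The concentration for 50% growth inhibition is given as GI50.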 Active and inactive are the calls of the source. No stated cut-off is given here; in the data, active = GI50 up to about 1.1 µM and inactive = higher.
